# The list shows a part of the results.
# B1: B1567 (Bifidobacterium sp) (protein)
# chain: MKFTTAKKAVALTGAVAMLVSVAACGSDSGKSSQPAQDSDVKEITVWAWEPSLTQVAKDFEKETGIKVDLKNVGTNTKEYTQLDNAIEAGSGAPDVAQVEYYAVPQYAIKGNLLDITDKTSGYKDFYTPGPWASVQFAGKVYGLPMDSGPMAFFYNKEVFDKAGVDAEQIKTWDQYYDAAKKIHALGDNYYITSDTGDAGFFDSMTWLAGAKPFQTSSDGSEVTVNLTEDKGVKTFTDFWQKLLDEGLLDTKTAGWSEDWFKGMVDGTIASLFTGAWMPANLANSAADGAGKWRVTQMPTADGSTTNSENGGSSLAVLASTKKADAAYQFIEYANHGAGVATRVAGGAFPADKASLEKDSFKNATTVKNADGQDVDYFGGQKYNEVLAQAAENVSSGYQFLPFEVKARTIFGDYFGKSYTGDQKLSDGVAAWQKALQDYGKDQGFTVK
# Assays:
# Test in all cases: glycan array binding signal (z-score within array); higher = stronger binding
# Conditions in all cases: glycan notation: IUPAC condensed, linker removed
# GlcNAc(b1-3)Gal(b1-4)Glc = molecular target: GlcNAc(b1-3)Gal(b1-4)Glc
# Summary of the method: (§1)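 The binding signal is a Z-score computed within each array and averaged over linkers. Arrays of the same protein sequence at different concentrations or buffers were also averaged together. Data originate from 3228 arrays in the Consortium for Functional Glycomics database, kept only where the protein sequence was available.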
# [1] = molecular target: GlcNAc(b1-3)Gal(b1-4)GlcNAc
# Summary of the method: as §1
# [2] = molecular target: GlcNAc(b1-3)Gal(b1-4)GlcNAc(b1-2)Man(a1-3)[GlcNAc(b1-3)Gal(b1-4)GlcNAc(b1-2)Man(a1-6)]Man(b1-4)GlcNAc(b1-4)GlcNAc
# Summary of the method: as §1
# [3] = molecular target: GlcNAc(b1-3)Gal(b1-4)GlcNAc(b1-2)Man(a1-3)[GlcNAc(b1-3)Gal(b1-4)GlcNAc(b1-2)Man(a1-6)]Man(b1-4)GlcNAc(b1-4)[Fuc(a1-6)]GlcNAc
# Summary of the method: as §1
# [4] = molecular target: GlcNAc(b1-3)Gal(b1-4)GlcNAc(b1-2)[GlcNAc(b1-3)Gal(b1-4)GlcNAc(b1-6)]Man(a1-6)[GlcNAc(b1-3)Gal(b1-4)GlcNAc(b1-2)Man(a1-3)]Man(b1-4)GlcNAc(b1-4)GlcNAc
# Summary of the method: as §1
# [5] = molecular target: GlcNAc(b1-3)Gal(b1-4)GlcNAc(b1-3)Gal(b1-4)GlcNAc
# Summary of the method: as §1
# [6] = molecular target: GlcNAc(b1-3)Gal(b1-4)GlcNAc(b1-3)Gal(b1-4)GlcNAc(b1-2)Man(a1-3)[GlcNAc(b1-3)Gal(b1-4)GlcNAc(b1-3)Gal(b1-4)GlcNAc(b1-2)Man(a1-6)]Man(b1-4)GlcNAc(b1-4)GlcNAc
# Summary of the method: as §1
# [7] = molecular target: GlcNAc(b1-3)Gal(b1-4)GlcNAc(b1-3)Gal(b1-4)GlcNAc(b1-2)Man(a1-3)[GlcNAc(b1-3)Gal(b1-4)GlcNAc(b1-3)Gal(b1-4)GlcNAc(b1-2)Man(a1-6)]Man(b1-4)GlcNAc(b1-4)[Fuc(a1-6)]GlcNAc
# Summary of the method: as §1
# [8] = molecular target: GlcNAc(b1-3)Gal(b1-4)GlcNAc(b1-3)Gal(b1-4)GlcNAc(b1-2)[GlcNAc(b1-3)Gal(b1-4)GlcNAc(b1-3)Gal(b1-4)GlcNAc(b1-6)]Man(a1-6)[GlcNAc(b1-3)Gal(b1-4)GlcNAc(b1-3)Gal(b1-4)GlcNAc(b1-2)Man(a1-3)]Man(b1-4)GlcNAc(b1-4)[Fuc(a1-6)]GlcNAc
# Summary of the method: as §1
# [9] = molecular target: GlcNAc(b1-3)Gal(b1-4)GlcNAc(b1-3)Gal(b1-4)GlcNAc(b1-3)Gal(b1-4)GlcNAc(b1-2)Man(a1-3)[GlcNAc(b1-3)Gal(b1-4)GlcNAc(b1-3)Gal(b1-4)GlcNAc(b1-3)Gal(b1-4)GlcNAc(b1-2)Man(a1-6)]Man(b1-4)GlcNAc(b1-4)GlcNAc
# Summary of the method: as §1
# [10] = molecular target: GlcNAc(b1-3)Gal(b1-4)GlcNAc(b1-3)Gal(b1-4)GlcNAc(b1-3)Gal(b1-4)GlcNAc(b1-2)Man(a1-3)[GlcNAc(b1-3)Gal(b1-4)GlcNAc(b1-3)Gal(b1-4)GlcNAc(b1-3)Gal(b1-4)GlcNAc(b1-2)Man(a1-6)]Man(b1-4)GlcNAc(b1-4)[Fuc(a1-6)]GlcNAc
# Summary of the method: as §1
# [11] = molecular target: GlcNAc(b1-3)Gal(b1-4)GlcNAc(b1-3)Gal(b1-4)GlcNAc(b1-3)Gal(b1-4)GlcNAc(b1-2)[GlcNAc(b1-3)Gal(b1-4)GlcNAc(b1-3)Gal(b1-4)GlcNAc(b1-3)Gal(b1-4)GlcNAc(b1-6)]Man(a1-6)[GlcNAc(b1-3)Gal(b1-4)GlcNAc(b1-3)Gal(b1-4)GlcNAc(b1-3)Gal(b1-4)GlcNAc(b1-2)Man(a1-3)]Man(b1-4)GlcNAc(b1-4)[Fuc(a1-6)]GlcNAc
# Summary of the method: as §1
# [12] = molecular target: GlcNAc(b1-3)Gal(b1-4)GlcNAc(b1-3)Gal(b1-4)GlcNAc(b1-3)Gal(b1-4)GlcNAc(b1-3)Gal(b1-4)GlcNAc(b1-2)Man(a1-3)[GlcNAc(b1-3)Gal(b1-4)GlcNAc(b1-3)Gal(b1-4)GlcNAc(b1-3)Gal(b1-4)GlcNAc(b1-3)Gal(b1-4)GlcNAc(b1-2)Man(a1-6)]Man(b1-4)GlcNAc(b1-4)GlcNAc
# Summary of the method: as §1
# [13] = molecular target: GlcNAc(b1-3)Gal(b1-4)GlcNAc(b1-3)Gal(b1-4)GlcNAc(b1-3)Gal(b1-4)GlcNAc(b1-3)Gal(b1-4)GlcNAc(b1-2)Man(a1-3)[GlcNAc(b1-3)Gal(b1-4)GlcNAc(b1-3)Gal(b1-4)GlcNAc(b1-3)Gal(b1-4)GlcNAc(b1-3)Gal(b1-4)GlcNAc(b1-2)Man(a1-6)]Man(b1-4)GlcNAc(b1-4)[Fuc(a1-6)]GlcNAc
# Summary of the method: as §1
# [14] = molecular target: GlcNAc(b1-3)Gal(b1-4)GlcNAc(b1-3)Gal(b1-4)GlcNAc(b1-3)Gal(b1-4)GlcNAc(b1-3)Gal(b1-4)GlcNAc(b1-2)[GlcNAc(b1-3)Gal(b1-4)GlcNAc(b1-3)Gal(b1-4)GlcNAc(b1-3)Gal(b1-4)GlcNAc(b1-3)Gal(b1-4)GlcNAc(b1-6)]Man(a1-6)[GlcNAc(b1-3)Gal(b1-4)GlcNAc(b1-3)Gal(b1-4)GlcNAc(b1-3)Gal(b1-4)GlcNAc(b1-3)Gal(b1-4)GlcNAc(b1-2)Man(a1-3)]Man(b1-4)GlcNAc(b1-4)[Fuc(a1-6)]GlcNAc
# Summary of the method: as §1
# [15] = molecular target: GlcNAc(b1-3)Gal(b1-4)GlcNAc(b1-3)Gal(b1-4)GlcNAc(b1-3)GalNAc
# Summary of the method: as §1
# [16] = molecular target: GlcNAc(b1-3)Gal(b1-4)GlcNAc(b1-3)GalNAc
# Summary of the method: as §1
# [17] = molecular target: GlcNAc(b1-3)Gal(b1-4)GlcNAc(b1-3)[GlcNAc(b1-3)Gal(b1-4)GlcNAc(b1-3)]GalNAc
# Summary of the method: as §1
# [18] = molecular target: GlcNAc(b1-3)Gal(b1-4)GlcNAc(b1-6)[Gal(b1-3)]GalNAc
# Summary of the method: as §1
# [19] = molecular target: GlcNAc(b1-3)Gal(b1-4)GlcNAc(b1-6)[GlcNAc(b1-3)Gal(b1-3)]GalNAc
# Summary of the method: as §1
# [20] = molecular target: GlcNAc(b1-3)Gal(b1-4)GlcNAc(b1-6)[GlcNAc(b1-3)]Gal(b1-4)GlcNAc
# Summary of the method: as §1
# GlcNAc(b1-3)GalNAc = molecular target: GlcNAc(b1-3)GalNAc
# Summary of the method: as §1
# GlcNAc(b1-3)Man = molecular target: GlcNAc(b1-3)Man
# Summary of the method: as §1
# [21] = molecular target: GlcNAc(b1-3)[GlcNAc(b1-4)][GlcNAc(b1-6)]GlcNAc
# Summary of the method: as §1
# [22] = molecular target: GlcNAc(b1-3)[GlcNAc(b1-6)]Gal(b1-4)GlcNAc
# Summary of the method: as §1
# [23] = molecular target: GlcNAc(b1-3)[GlcNAc(b1-6)]GalNAc
# Summary of the method: as §1
# [24] = molecular target: GlcNAc(b1-4)Gal(b1-4)GlcNAc
# Summary of the method: as §1
# GlcNAc(b1-4)GlcNAc = molecular target: GlcNAc(b1-4)GlcNAc
# Summary of the method: as §1
# [25] = molecular target: GlcNAc(b1-4)GlcNAc(b1-4)GlcNAc
# Summary of the method: as §1
# [26] = molecular target: GlcNAc(b1-4)GlcNAc(b1-4)GlcNAc(b1-4)GlcNAc(b1-4)GlcNAc
# Summary of the method: as §1
# [27] = molecular target: GlcNAc(b1-4)GlcNAc(b1-4)GlcNAc(b1-4)GlcNAc(b1-4)GlcNAc(b1-4)GlcNAc
# Summary of the method: as §1
# [28] = molecular target: GlcNAc(b1-4)[GlcNAc(b1-6)]GalNAc
# Summary of the method: as §1
# [29] = molecular target: GlcNAc(b1-6)Gal(b1-4)GlcNAc
# Summary of the method: as §1
# GlcNAc(b1-6)GalNAc = molecular target: GlcNAc(b1-6)GalNAc
# Summary of the method: as §1
# [30] = molecular target: GlcNAc6S(b1-3)Gal(b1-4)GlcNAc
# Summary of the method: as §1
# Kdn(a2-3)Gal(b1-3)GalNAc = molecular target: Kdn(a2-3)Gal(b1-3)GalNAc
# Summary of the method: as §1
# Kdn(a2-3)Gal(b1-3)GlcNAc = molecular target: Kdn(a2-3)Gal(b1-3)GlcNAc
# Summary of the method: as §1
# Kdn(a2-3)Gal(b1-4)Glc = molecular target: Kdn(a2-3)Gal(b1-4)Glc
# Summary of the method: as §1
# Kdn(a2-3)Gal(b1-4)GlcNAc = molecular target: Kdn(a2-3)Gal(b1-4)GlcNAc
# Summary of the method: as §1
# [31] = molecular target: Kdn(a2-3)Gal(b1-4)[Fuc(a1-3)]GlcNAc
# Summary of the method: as §1
# Kdn(a2-6)Gal(b1-4)GlcNAc = molecular target: Kdn(a2-6)Gal(b1-4)GlcNAc
# Summary of the method: as §1
# [32] = molecular target: Man(a1-2)Man(a1-2)Man(a1-3)Man
# Summary of the method: as §1
# [33] = molecular target: Man(a1-2)Man(a1-2)Man(a1-6)[Man(a1-3)]Man
# Summary of the method: as §1
# Man(a1-2)Man(a1-3)Man = molecular target: Man(a1-2)Man(a1-3)Man
# Summary of the method: as §1
# [34] = molecular target: Man(a1-2)Man(a1-3)[Man(a1-2)Man(a1-6)]Man
# Summary of the method: as §1
binder,measurement,setting,value
B1,glycan array binding signal (z-score),GlcNAc(b1-3)Gal(b1-4)Glc,-0.087
same,glycan array binding signal (z-score),[1],-0.127
same,glycan array binding signal (z-score),[2],-0.123
same,glycan array binding signal (z-score),[3],0.033
same,glycan array binding signal (z-score),[4],-0.029
same,glycan array binding signal (z-score),[5],-0.124
same,glycan array binding signal (z-score),[6],0.008
same,glycan array binding signal (z-score),[7],-0.075
same,glycan array binding signal (z-score),[8],0.09
same,glycan array binding signal (z-score),[9],-0.073
same,glycan array binding signal (z-score),[10],-0.049
same,glycan array binding signal (z-score),[11],-0.057
same,glycan array binding signal (z-score),[12],-0.043
same,glycan array binding signal (z-score),[13],-0.059
same,glycan array binding signal (z-score),[14],-0.095
same,glycan array binding signal (z-score),[15],-0.12
same,glycan array binding signal (z-score),[16],-0.008
same,glycan array binding signal (z-score),[17],-0.052
same,glycan array binding signal (z-score),[18],-0.11
same,glycan array binding signal (z-score),[19],-0.096
same,glycan array binding signal (z-score),[20],-0.069
same,glycan array binding signal (z-score),GlcNAc(b1-3)GalNAc,-0.095
same,glycan array binding signal (z-score),GlcNAc(b1-3)Man,-0.055
same,glycan array binding signal (z-score),[21],-0.063
same,glycan array binding signal (z-score),[22],-0.114
same,glycan array binding signal (z-score),[23],-0.098
same,glycan array binding signal (z-score),[24],-0.09
same,glycan array binding signal (z-score),GlcNAc(b1-4)GlcNAc,-0.116
same,glycan array binding signal (z-score),[25],-0.184
same,glycan array binding signal (z-score),[26],-0.022
same,glycan array binding signal (z-score),[27],-0.109
same,glycan array binding signal (z-score),[28],-0.173
same,glycan array binding signal (z-score),[29],-0.07
same,glycan array binding signal (z-score),GlcNAc(b1-6)GalNAc,-0.092
same,glycan array binding signal (z-score),[30],-0.139
same,glycan array binding signal (z-score),Kdn(a2-3)Gal(b1-3)GalNAc,-0.054
same,glycan array binding signal (z-score),Kdn(a2-3)Gal(b1-3)GlcNAc,-0.128
same,glycan array binding signal (z-score),Kdn(a2-3)Gal(b1-4)Glc,-0.115
same,glycan array binding signal (z-score),Kdn(a2-3)Gal(b1-4)GlcNAc,-0.15
same,glycan array binding signal (z-score),[31],-0.018
same,glycan array binding signal (z-score),Kdn(a2-6)Gal(b1-4)GlcNAc,-0.134
same,glycan array binding signal (z-score),[32],-0.101
same,glycan array binding signal (z-score),[33],-0.027
same,glycan array binding signal (z-score),Man(a1-2)Man(a1-3)Man,-0.155
same,glycan array binding signal (z-score),[34],-0.137
